In publication PMC10945755 (Proceedings of the National Academy of Sciences of the …, 2024):

How the values were obtained:
[1] = molecular target: RB1CC1(1286-1594) R1375A mutant (UniProt Q8TDY2 1286-1594, R1375A); assay: SEC
[2] = molecular target: RB1CC1(1286-1594) (UniProt Q8TDY2 1286-1594); assay: SEC
[3] = molecular target: the molecule itself
[4] = molecular target: Nano-RB1CC1(1286-1594) (UniProt Q8TDY2 1286-1594); assay: AUC

Row | binding result [1] | binding result [2] | binding result [4] | Binder | stoichiometry N [3]
1 | binds | binds | – | TAX1BP1([…]) (domain or fragment, labeled (label not named) in the spectral shift binding assay) not shown | 2
2 | – | – | binds | Trx-TAX1BP1([…]) (domain or fragment) not shown | –
